Measured values from paper PMC7284133, “Identification and analysis of novel small molecule inhibitors of RNase E: Implications for antibacterial targeting and regulation of RNase E” (Biochemistry and Biophysics Reports, 2020).

Molecular target: T1, RNase E (Acinetobacter baumannii, UniProt A0ABX6CBI2)
T1 construct: gene rne; N-terminal domain (aa 1–544), N-terminally His10-tagged
Format: biochemical

Row | SMILES | FRET-based real-time RNA cleavage assay, single concentration (2 mM)
1 | CC(C)c1c(O)nc(SCCC(=O)O)[nH]c1=O [AS2] | All three small molecules inhibited all three RNase E NTDs.
2 | N[C@@H]1[C@@H](O)[C@H](O)[C@@H](COP(=O)(O)O)O[C@@H]1O [AS4, glucosamine-6-phosphate] | All three small molecules inhibited all three RNase E NTDs.
